# Test results from PubChem BioAssay AID686978 (National Center for Advancing Translational Sciences (NCATS), 2013).
# Screen size: about 420,000 compounds; about 64,000 (15%) were called active. The shares of active, inactive and inconclusive entries below differ from those in the screen. The call rests on the fitted dose curve; in most records, active means well fitted inhibition curve with a large enough effect; inconclusive means small, poorly fitted or top-dose-only effect; inactive means flat fitted curve, though single readings scatter. No potency is given beside an inconclusive call; the fits are too rough.
# Assay: qHTS for Inhibitors of human tyrosyl-DNA phosphodiesterase 1 (TDP1): qHTS in cells in absence of CPT; further: nearly all actives have a fitted effect of over 55% in size
# Conditions: DT40 Tdp1-/- hTDP1 cells, no CPT, ATP luminescence, 48 h; activity change, negative = growth inhibition: at 46.2 µM (top of the series) unless noted
# Outline: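 Stably hTDP1-transfected Tdp1-null chicken DT40 cells were treated with library compounds minus camptothecin and grown for at least 48 hr at 37 °C, after which cellular ATP was quantified by luminescence.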
# On the % scale 0 is the no-effect control and ±100 the full control effect; potency means the concentration at half of the fitted maximal effect; tags describe the fitted curve by direction and shape.
SMILES,Potency,"activity change, negative = growth inhibition"
Cc1cccc(S(=O)(=O)NCCc2ccccc2)c1,inactive,
O=C(CCSc1ccccc1)Nc1nc2c(s1)COc1ccccc1-2,"inconclusive [inhibitor, single point]",
COCCN(C(=O)COC(=O)C(c1ccccc1)c1ccccc1)c1c(N)n(Cc2ccccc2)c(=O)[nH]c1=O,"inconclusive [inhibitor, single point]",
Cc1nc(CCNC(=O)Cc2ccc(F)cc2)cs1,inactive,
Nc1c(C(=O)Nc2ccc3c(c2)OCCO3)nnn1Cc1cccc(Cl)c1,active: 16.4 µM,
Cc1c(C(=O)NCc2ccc3c(c2)OCO3)oc2ccc(S(=O)(=O)N3CCCCCC3)cc12,"inconclusive [inhibitor, single point]",
Cc1ccc(C2(C)NC(=O)N(CC(=O)Nc3cc(S(=O)(=O)N4CCCCC4)ccc3OC(C)C)C2=O)cc1 (stereo not given),"inconclusive [inhibitor, partial curve]",
Cc1ccc(NC(=O)COC(=O)c2cccc(OC(F)F)c2)cc1S(=O)(=O)N1CCCCC1,"inconclusive [inhibitor, single point]",
CCOc1cc(N2CCOCC2)c(OCC)cc1NC(=O)Cc1cn2ccsc2n1,,inconclusive: -32.1% [inhibitor]
COc1ccc(F)cc1S(=O)(=O)NC(Cc1ccccc1)C(N)=O (stereo not given),inactive,
O=C(NCCc1ccccc1)C(=O)NCC(c1cccs1)S(=O)(=O)c1cccs1 (stereo not given),"inconclusive [inhibitor, partial curve, poor fit]",
CCn1c2ccccc2c2cc(NC(=O)c3ccco3)ccc21,"inconclusive [inhibitor, single point]",
CC1(C)N=C(SCc2ccc(Cl)cc2)c2ccccc2N1,"inconclusive [inhibitor, partial curve, poor fit]",
Cc1cc2oc(=O)cc(CN3CCN(Cc4ccc5c(c4)OCO5)CC3)c2cc1C,"inconclusive [inhibitor, single point]",
CCC(Sc1nnc2c3ccccc3n(CC)c2n1)C(=O)Nc1sc2c(c1C#N)CCCC2 (stereo not given),"inconclusive [inhibitor, single point]",
O=C(Nc1ccncc1)Nc1cccc(Cl)c1Cl,"inconclusive [inhibitor, partial curve]",
CN(CCOc1ccccc1)Cc1ccccc1,inactive,
Cc1cc(C)c(S(=O)(=O)N(CC(=O)N2CCOCC2)C2CCCCC2)c(C)c1,"inconclusive [inhibitor, single point]",
COCCOC(=O)c1c(C)n(C)c2ccc(OC(=O)c3c(OC)cccc3OC)cc12,active: 16.4 µM,
CCOC(=O)c1c(C)[nH]c(C)c1S(=O)(=O)N1CCC(C(=O)Nc2ccccc2CC)CC1,"inconclusive [inhibitor, single point]",
Clc1ccc2nnnc(-c3ccccc3)c2c1,active: 4.11 µM,
COC(=O)c1ccc2nc(C)cc(Nc3ccc(N(C)C)cc3)c2c1,"inconclusive [inhibitor, single point]",
OC(COc1ccccc1)CSc1ncn[nH]1 (stereo not given),inactive,

SMILES,Potency,"activity change, negative = growth inhibition"
Cc1cc(C)cc(OCC(=O)Nc2nc3ccc([N+](=O)[O-])cc3s2)c1,inactive,
Cn1c(=O)cc(SCC(=O)NCc2ccc(F)cc2)c2cc(Cl)ccc21,active: 13 µM,
CN(C)C(=O)c1ccc(NC(=O)COC(=O)Cn2cc(C(F)(F)F)ccc2=O)cc1,inactive,
COc1cc(/C=C2\SC(=S)N(CCC(=O)N3CCCCC3)C2=O)cc(OC)c1OC,"inconclusive [inhibitor, partial curve, poor fit]",
COc1ccc(CNC(=O)c2ccc(CS(=O)(=O)c3ccc(C)cc3)o2)cc1,"inconclusive [inhibitor, single point]",
Cc1ccc(S(=O)(=O)N2CCN(Cc3cc(=O)n4nc(-c5ccccc5Cl)sc4n3)CC2)cc1,inactive,
COc1cc(C)ccc1OCc1cc(C(=O)N2CCCCCC2)no1,"inconclusive [inhibitor, single point]",
CCCC1(c2ccccc2)NC(=O)N(CC(=O)Nc2cc(C)ccc2OC)C1=O (stereo not given),inactive,
COc1ccc(OC)c(CN2C(=O)CSCC2(C)C(=O)NCc2ccccc2)c1 (stereo not given),inactive,
COc1ccc(NC(=O)N2CCCn3nc(C)cc32)cc1OC,inactive,
Cc1cc(C(=O)OCC(=O)Nc2ccccc2C)c(C)o1,inactive,
CN(CCC#N)Cc1cc(=O)oc2ccc3ccccc3c12,"inconclusive [inhibitor, partial curve]",
CCCCN1CC[C@H]2C=CC[C@@H](C(=O)Nc3ccc(OC)cc3)[C@H]2C1=O,"inconclusive [inhibitor, single point]",
O=C(CCc1ccccc1)Nc1ccnn1C1CCN(C/C=C/c2ccccc2)CC1,"inconclusive [inhibitor, single point]",
c1ccc(Nc2nc3ccccc3[nH]2)nc1,"inconclusive [inhibitor, single point]",
Cn1c(=O)c(=O)n(C)c2cc(NS(=O)(=O)c3ccc(Br)cc3)c(Cl)cc21,"inconclusive [inhibitor, partial curve, poor fit]",
COc1ccccc1CNC(=O)CN1C(=O)NC(C)(c2ccc(C(C)(C)C)cc2)C1=O (stereo not given),"inconclusive [inhibitor, partial curve]",
C=CCOc1ccc(CN(C)CC(O)COc2cccc3ccccc23)cc1 (stereo not given),"inconclusive [inhibitor, single point]",
Cc1nc2ccccc2c(=O)n1NS(C)(=O)=O,inactive,
CC(C)Oc1ccc(CN2CCC2(C)C(=O)Nc2cccc3cccnc23)cc1 (stereo not given),"inconclusive [inhibitor, single point]",
CCOC(=O)/C(C#N)=N/Nc1ccc(S(=O)(=O)N2CCc3ccccc32)cc1,"inconclusive [inhibitor, single point]",
CC(C)(C)c1ccccc1NC(=O)CN1C(=O)NC2(CCCCCC2)C1=O,inactive,
